In the supplement of paper PMC12217912:
This is one part of the list. Sequences were assembled here from the parent chain. Inactive controls read about 0.05.

B1: TEV protease; numbered along this chain (parent)
chain: MGESLFKGPRDYNPISSSICHLTNESDGHTTSLYGIGFGPFIITNKHLFRRNNGTLVVQSLHGVFKVKDTTTLQQHLVDGRDMIIIRMPKDFPPFPQKLKFREPQREERICLVTTNFQTKSMSSMVSDTSCTFPSGDGIFWKHWIQTKDGQCGSPLVSTRDGFIVGIHSASNFTNTNNYFTSVPKNFMELLTNQEAQQWVSGWRLNADSVLWGGHKVFMVKPEEPFQPVKEATQL

Variants of: B1
Test: raw area under fraction-flipped curve 0-4 h after induction (AUC4h, not background-subtracted), DNA-recorder readout of cleavage of the substrate (dimensionless); higher = more cleavage of the substrate by the protease variant
Conditions: temperature: 34 °C; time window: 0-4 h after rhamnose induction
Method: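 In vivo DNA recorder in E. coli TOP10(DE3) ΔrhaA at 34 °C. Each TEVp single-site mutant (parent TEVp 0) is paired with a single-site variant of the 7-mer TEVs (canonical ENLYFQ|S). The substrate sits between flexible linkers in a Bxb1-sfGFP-TEVs-SsrA fusion, so cleavage stabilises Bxb1 and speeds flipping of a recombination array, read by NGS. The value is the raw area under the fraction-flipped curve over 0-4 h after rhamnose induction (AUC4h), with ≥20 reads per time point. It is not background-subtracted; inactive controls average about 0.047.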
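Further: Bxb1 expression induced with 0.2% (w/v) L-rhamnose at OD600 near 0.5, cultures sampled hourly, flipped fraction per protease–substrate barcode pair counted by paired-end Illumina sequencing.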

Row | Variant | area with substrate ENLYFAS | area with substrate ENLYFES | area with substrate ENLYFFS | area with substrate ENLYFGS | area with substrate ENLYFIS | area with substrate ENLYFKS | area with substrate ENLYFMS | area with substrate ENLYFNS | area with substrate ENLYFPS | area with substrate ENLYFRS | area with substrate ENLYFSS | area with substrate ENLYFTS | area with substrate ENLYFVS | area with substrate ENLYFWS | area with substrate ENLYFCS | area with substrate ENLYFDS | area with substrate ENLYFLS | area with substrate ENLYFYS | area with substrate ENLYFHS
1 | MGESLFKGPRDYNPISSSICHLTNESDGHTTSLYGIGFGPFIITNKHLFRRNNHTLVVQSLHGVFKVKDTTTLQQHLVDGRDMIIIRMPKDFPPFPQKLKFREPQREERICLVTTNFQTKSMSSMVSDTSCTFPSGDGIFWKHWIQTKDGQCGSPLVSTRDGFIVGIHSASNFTNTNNYFTSVPKNFMELLTNQEAQQWVSGWRLNADSVLWGGHKVFMVKPEEPFQPVKEATQL [G54H] | 0.0562 | 0.0651 | 0.0596 | 0.0663 | 0.0577 | 0.0599 | 0.0565 | 0.0624 | 0.067 | 0.0448 | 0.0393 | 0.0569 | 0.0677 | 0.0616 | – | – | – | – | –
2 | MGESLFKGPRDYNPISSSICHLTNESDGHTTSLYGIGFGPFIITNKHLFRRNNLTLVVQSLHGVFKVKDTTTLQQHLVDGRDMIIIRMPKDFPPFPQKLKFREPQREERICLVTTNFQTKSMSSMVSDTSCTFPSGDGIFWKHWIQTKDGQCGSPLVSTRDGFIVGIHSASNFTNTNNYFTSVPKNFMELLTNQEAQQWVSGWRLNADSVLWGGHKVFMVKPEEPFQPVKEATQL [G54L] | 0.0549 | 0.0567 | 0.0514 | – | 0.0552 | 0.058 | 0.0553 | 0.061 | 0.0573 | 0.0691 | 0.0469 | 0.0546 | 0.0578 | 0.047 | 0.0497 | 0.0562 | 0.0598 | 0.0623 | –
3 | MGESLFKGPRDYNPISSSICHLTNESDGHTTSLYGIGFGPFIITNKHLFRRNNGGLVVQSLHGVFKVKDTTTLQQHLVDGRDMIIIRMPKDFPPFPQKLKFREPQREERICLVTTNFQTKSMSSMVSDTSCTFPSGDGIFWKHWIQTKDGQCGSPLVSTRDGFIVGIHSASNFTNTNNYFTSVPKNFMELLTNQEAQQWVSGWRLNADSVLWGGHKVFMVKPEEPFQPVKEATQL [T55G] | 0.0496 | 0.0568 | 0.0642 | – | 0.055 | 0.0566 | 0.0539 | 0.0508 | 0.0532 | – | 0.065 | – | 0.0601 | – | – | – | – | 0.0633 | –
4 | MGESLFKGPRDYNPISSSICHLTNESDGHTTSLYGIGFGPFIITNKHLRRRNNGTLVVQSLHGVFKVKDTTTLQQHLVDGRDMIIIRMPKDFPPFPQKLKFREPQREERICLVTTNFQTKSMSSMVSDTSCTFPSGDGIFWKHWIQTKDGQCGSPLVSTRDGFIVGIHSASNFTNTNNYFTSVPKNFMELLTNQEAQQWVSGWRLNADSVLWGGHKVFMVKPEEPFQPVKEATQL [F49R] | 0.045 | – | 0.0717 | 0.0527 | 0.0536 | 0.0515 | 0.0626 | 0.0555 | 0.0558 | 0.0493 | 0.0635 | 0.0513 | – | 0.0371 | – | – | 0.0574 | 0.0303 | 0.0501
5 | MGESLFKGPRDYNPISSSICHLTNESDGHTTSLYGIGFGPFIITNKHLPRRNNGTLVVQSLHGVFKVKDTTTLQQHLVDGRDMIIIRMPKDFPPFPQKLKFREPQREERICLVTTNFQTKSMSSMVSDTSCTFPSGDGIFWKHWIQTKDGQCGSPLVSTRDGFIVGIHSASNFTNTNNYFTSVPKNFMELLTNQEAQQWVSGWRLNADSVLWGGHKVFMVKPEEPFQPVKEATQL [F49P] | 0.0506 | 0.0599 | 0.0646 | 0.0639 | 0.0532 | 0.0482 | 0.0572 | 0.0508 | – | 0.0474 | 0.0597 | 0.0565 | 0.0645 | 0.0593 | 0.0465 | 0.0509 | 0.0634 | – | 0.0662
6 | MGESLFKGPRDYNPISSSICHLTNESDGHTTSLYGIGFGPFIITNKHLGRRNNGTLVVQSLHGVFKVKDTTTLQQHLVDGRDMIIIRMPKDFPPFPQKLKFREPQREERICLVTTNFQTKSMSSMVSDTSCTFPSGDGIFWKHWIQTKDGQCGSPLVSTRDGFIVGIHSASNFTNTNNYFTSVPKNFMELLTNQEAQQWVSGWRLNADSVLWGGHKVFMVKPEEPFQPVKEATQL [F49G] | 0.0449 | 0.0605 | 0.0533 | 0.0578 | 0.0564 | 0.0568 | 0.0535 | – | 0.0634 | 0.0515 | 0.0681 | 0.0437 | – | 0.0599 | 0.041 | 0.0635 | – | 0.0414 | 0.0536
7 | MGESLFKGPRDYNPISSSICHLTNESDGHTTSLYGIGFGPFIITNPHLFRRNNGTLVVQSLHGVFKVKDTTTLQQHLVDGRDMIIIRMPKDFPPFPQKLKFREPQREERICLVTTNFQTKSMSSMVSDTSCTFPSGDGIFWKHWIQTKDGQCGSPLVSTRDGFIVGIHSASNFTNTNNYFTSVPKNFMELLTNQEAQQWVSGWRLNADSVLWGGHKVFMVKPEEPFQPVKEATQL [K46P] | 0.0176 | – | 0.0651 | – | 0.0538 | 0.0389 | 0.0466 | 0.0567 | 0.0546 | 0.0529 | 0.0501 | 0.0723 | – | – | 0.0588 | – | 0.0619 | – | 0.059
8 | MGESLFKGPRDYNPISSSICHLTNESDGHTTSLYGIGFGPFIITIKHLFRRNNGTLVVQSLHGVFKVKDTTTLQQHLVDGRDMIIIRMPKDFPPFPQKLKFREPQREERICLVTTNFQTKSMSSMVSDTSCTFPSGDGIFWKHWIQTKDGQCGSPLVSTRDGFIVGIHSASNFTNTNNYFTSVPKNFMELLTNQEAQQWVSGWRLNADSVLWGGHKVFMVKPEEPFQPVKEATQL [N45I] | 0.0469 | 0.0519 | – | – | 0.0597 | 0.0827 | 0.0568 | 0.0596 | 0.0509 | 0.0397 | – | 0.0647 | 0.0587 | – | – | – | 0.0652 | 0.0614 | –
9 | MGESLFKGPRDYNPISSSICHLTNESDGHTTSLYGIGFGPFIITVKHLFRRNNGTLVVQSLHGVFKVKDTTTLQQHLVDGRDMIIIRMPKDFPPFPQKLKFREPQREERICLVTTNFQTKSMSSMVSDTSCTFPSGDGIFWKHWIQTKDGQCGSPLVSTRDGFIVGIHSASNFTNTNNYFTSVPKNFMELLTNQEAQQWVSGWRLNADSVLWGGHKVFMVKPEEPFQPVKEATQL [N45V] | 0.0506 | 0.0511 | 0.0633 | 0.0621 | 0.0561 | 0.0635 | 0.0455 | 0.0627 | 0.0657 | 0.0598 | 0.0511 | 0.0673 | 0.0694 | 0.0652 | 0.0675 | – | 0.0589 | 0.0659 | 0.0674
